Data published in PubChem BioAssay AID651820 (National Center for Advancing Translational Sciences (NCATS), 2012).
Out of some 340,000 compounds screened, about 12,000 (3.5%) were called active. The shares of active, inactive and inconclusive entries below differ from those in the screen. Calls follow the shape of the dose curve; as a rule, active = well fitted inhibition curve with a large enough effect; inconclusive = small, poorly fitted or top-dose-only effect, or another doubt; inactive = no such curve, though single readings can be large or run the other way. No potency is given beside an inconclusive call; the fits are too rough.
Potency is read from the fitted curve at half-maximal effect; tags tell the direction and shape of the fitted curve.

Experiment: qHTS Assay for Inhibitors of Hepatitis C Virus (HCV)
Settings: Huh7.5.1 HCVcc-Cre (HCVcc is cell-culture hepatitis C virus) infection, luciferase reporter, 44 h; series mostly up to 41.8 µM
How it was run: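 1,000 cells/well; 4 h culture; + compound; + HCVcc-Cre (~0.5 moi); 44 h; luciferase substrate, RT 15 min; read 15 sec.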
For `COc1cc2c(C(=O)N3CCN(c4ccccc4C)CC3)c(C)oc2cc1Br`, the Potency was active: 11.2 µM. In the case of `Cc1nn(C(=O)c2cccs2)c(N)c1-c1ccccc1`, the Potency is reported as “inactive”. In the case of `O=[N+]([O-])c1cccc(-c2nnc(-c3ccccc3F)o2)c1`, the Potency is reported as “inactive”. With `CC(=O)c1ccc(NC(=O)N2CCN(c3ccc(C)cc3)C(C)C2)cc1` (stereo not drawn) the Potency was inconclusive [inhibitor, partial curve]. With `CCn1c(-c2ccccc2)c(C(=O)CC#N)c2ccccc21` the Potency was inconclusive [inhibitor, partial curve]. With `O=S(=O)(Cc1cc(NCc2ccccc2)nc(-c2ccccn2)n1)c1ccccc1` the Potency was inconclusive [inhibitor, partial curve]. With `C[C@H](CO)N1C[C@H](C)[C@@H](CN(C)S(=O)(=O)c2ccc(F)cc2)Oc2ccc(NC(=O)Nc3ccc(C(F)(F)F)cc3)cc2C1=O` the Potency was active: 31.6 µM. With `O=C(CSc1nc(N2CCCCC2)nc(N2CCCCC2)n1)N1CCN(c2ccccc2)CC1` the Potency was inconclusive [inhibitor, single point]. For `NC(=S)NN=C1c2ccccc2-c2cc(Br)ccc21`, the Potency was inconclusive [inhibitor, full curve]. With `Cc1nn(Cc2c(Cl)cccc2Cl)c(C)c1NC(=O)c1sc2ccccc2c1Cl` the Potency was inconclusive [inhibitor, single point]. In the case of `COc1cc(OC)c(N2CC(C(=O)NCCC3=CCCCC3)CC2=O)cc1Cl` (stereo not drawn), the Potency is reported as inconclusive [inhibitor, full curve]. With `O=[N+]([O-])NC1=NCN(Cc2ccco2)CN1Cc1ccco1` the Potency was inconclusive [inhibitor, single point]. With `O=C(N/N=C/c1ccc(O)cc1)c1cc(C23CC4CC(CC(C4)C2)C3)[nH]n1` the Potency was “inactive”. With `S=C(NN=Cc1ccccn1)N(Cc1ccccn1)Cc1ccccn1` the Potency was active: 1.26 µM. In the case of `COc1ccc(N/N=C(/N=Nc2nc(C)cc(=O)[nH]2)c2ccccc2)cc1`, the Potency is reported as active: 4.47 µM. With `O=C(CN1CCN(C(=S)NC2CCCC2)CC1)Nc1ccc(Oc2ccccc2)cc1` the Potency was inconclusive [inhibitor, single point]. For `O=c1[nH]c(CSc2nc(-c3ccccc3)cs2)nc2ccccc12`, the Potency was inconclusive [inhibitor, single point]. In the case of `COC(=O)c1cc(-c2ccccc2)sc1N`, the Potency is reported as active: 2 µM. For `CC(C)Cc1ccc(S(=O)(=O)N2CCN(C(=O)c3ccco3)CC2)cc1`, the Potency was inconclusive [inhibitor, partial curve]. With `C/C(=N\NC(=O)c1ccco1)c1ccc(NC(=O)C(F)(F)F)cc1` the Potency was “inactive”. With `O=C(Nc1ccc2c(c1)OCO2)NC1(C(F)(F)F)Oc2ccccc2O1` the Potency was inconclusive [inhibitor, single point]. For `COc1ccc(CC(=O)Nc2ccc(S(=O)(=O)N3CCCCC3)cc2)cc1OC`, the Potency was inconclusive [inhibitor, partial curve]. In the case of `COc1ccccc1OCC(=O)NNC(=O)C1CCN(c2ncnc3sc(C)c(C)c23)CC1`, the Potency is reported as active: 11.2 µM. In the case of `CN(C)CCCNC(=O)C[C@H]1C[C@H](C(=O)N2CCCCC2)[C@@]2(C)c3[nH]c4cc(CCC(=O)N(C)C)ccc4c3CCN2C1=O`, the Potency is reported as inconclusive [inhibitor, single point]. With `Fc1ccc(C(OCCN2CCCC2)c2ccc(Br)cc2)cc1` (stereo not drawn) the Potency was inconclusive [inhibitor, full curve]. For `Clc1ccccc1-c1nc2ccccc2c2nc3ccccc3n12`, the Potency was inconclusive [inhibitor, single point]. For `Nc1c2c(nc3sc4c(c13)CCCC4)CCCC2`, the Potency was inconclusive [inhibitor, partial curve]. In the case of `CCCn1c(=O)c(C(=O)Nc2cc(C)ccn2)c(O)c2ccccc21`, the Potency is reported as inconclusive [inhibitor, single point]. With `COCCn1c(SCc2nc3scc(-c4ccc(Cl)cc4)c3c(=O)[nH]2)nnc1-c1cccc(C)c1` the Potency was inconclusive [inhibitor, single point]. With `O=C(NCC1CCCCC1)C1(CC2CC(c3cccc(Br)c3)=NO2)CCNCC1` (stereo not drawn) the Potency was inconclusive [inhibitor, single point]. For `CCOC(=O)c1sc(NC(=O)CC(C)c2ccccc2)nc1C` (stereo not drawn), the Potency was inconclusive [inhibitor, single point]. For `CNC(=S)N/N=C(\C)c1ccccc1`, the Potency was “inactive”. With `CCn1c(SCC(=O)Nc2cccc(C(C)=O)c2)nnc1C(C)C` the Potency was inconclusive [inhibitor, single point]. In the case of `O=C(NCCN1C(=O)S/C(=C/c2ccccc2)C1=O)C1CC(=O)N(Cc2ccccc2)C1` (stereo not drawn), the Potency is reported as inconclusive [inhibitor, single point]. For `CC(C)COC(=O)N1CCCC1C(=O)O` (stereo not drawn), the Potency was active: 3.16 µM. In the case of `Cc1ccc(CNC(=O)C2CC(c3cccc([N+](=O)[O-])c3)=NO2)cc1` (stereo not drawn), the Potency is reported as inconclusive [inhibitor, single point]. With `Cc1ccc2sc(-c3ccc(NC(=O)c4cc(-n5cnnc5)ccc4Cl)cc3)nc2c1` the Potency was active: 0.891 µM. With `O=C(NCCCO)C(=O)Nc1ccc2c(c1)N(S(=O)(=O)c1cccs1)CCC2` the Potency was inconclusive [inhibitor, single point]. With `COc1ccc(-c2nnn(Cc3ccccc3F)n2)cc1` the Potency was active: 11.2 µM. In the case of `COc1ccc(C2c3ccc4ccccc4c3Oc3ncn(CCO)c(=N)c32)cc1OC` (stereo not drawn), the Potency is reported as active: 10 µM. With `COc1ccc(-c2cc(C(F)(F)F)n3nc(C(=O)N4CCCC4)cc3n2)cc1` the Potency was inconclusive [inhibitor, single point]. For `CC/C(=N\N1CCCCCC1)c1c(O)n(-c2ccccc2C)c(=O)[nH]c1=O`, the Potency was inconclusive [inhibitor, full curve, poor fit]. In the case of `Cc1nn(Cc2ccccc2)c(C)c1/C=N/NC(=O)CNc1cccc(C(F)(F)F)c1`, the Potency is reported as inconclusive [inhibitor, partial curve].
